# Patent publication EP4650366A1 (Beijing Tuo Jie Biopharmaceutical Co. Ltd., dated 2025)
# B1: C19-7 (Fc fusion)
# chain: EVQLLESGGGLVQPGGSLRLSCTASGFTYCEYDMSWYRQAPGKEREFVSRIASDGRTSYVDSVKGRFTISQDNARNTGYLEMNSLRAEDTAVYYCKTEAVKYSGNWCVAAPGFAYWGQGTLVTVSS[human IgG4 Fc with S228P (EU numbers) cut from this listing]
# notes: Humanized VHH-hIgG4 Fc; also called C19-hu7 fused with hIgG4 Fc
# B2: C19 (Fc fusion)
# chain: QVQLVESGGGSVQAGGSLRLSCTASGFTYCEYDMSWYRQAPGKEREFVSRIASDGRTSYVDSVKGRFTISQDNARNTGYLEMNSLKPEDTAMYYCKTEAVKYSGNWCVAAPGFAYWGQGTQVTVSS[human IgG4 Fc with S228P (EU numbers) cut from this listing]
# notes: Camelid VHH fused with human IgG4 Fc (S228P); It is built here from the VHH and the Fc; no linker is mentioned; also called C19-VHH fused with hIgG4-Fc (S228P)
# B3: C19-3 (Fc fusion)
# chain: EVQLLESGGGLVQPGGSLRLSCTASGFTYCEYDMSWYRQAPGKEREFVSRIASDGRTSYVDSVKGRFTISQDNARNTGYLQMNSLRAEDTAVYYCKTEAVKYSGNWCVAAPGFAYWGQGTLVTVSS[human IgG4 Fc with S228P (EU numbers) cut from this listing]
# notes: Humanized VHH-hIgG4 Fc; also called C19-hu3 fused with hIgG4 Fc
# Legend:
# Human GARP-TGFβ1 complex = molecular target: T1, Human GARP-TGFβ1 complex (human, UniProt Q14392 20-627; P01137 30-390); assay: SPR (Biacore T200), antibody on Protein A chip, antigen in flow
# Human GARP-TGFβ1 complex, sequence (Q14392 other isoform, or with tags, fused parts or gaps limits assumed, chain 1 of 2): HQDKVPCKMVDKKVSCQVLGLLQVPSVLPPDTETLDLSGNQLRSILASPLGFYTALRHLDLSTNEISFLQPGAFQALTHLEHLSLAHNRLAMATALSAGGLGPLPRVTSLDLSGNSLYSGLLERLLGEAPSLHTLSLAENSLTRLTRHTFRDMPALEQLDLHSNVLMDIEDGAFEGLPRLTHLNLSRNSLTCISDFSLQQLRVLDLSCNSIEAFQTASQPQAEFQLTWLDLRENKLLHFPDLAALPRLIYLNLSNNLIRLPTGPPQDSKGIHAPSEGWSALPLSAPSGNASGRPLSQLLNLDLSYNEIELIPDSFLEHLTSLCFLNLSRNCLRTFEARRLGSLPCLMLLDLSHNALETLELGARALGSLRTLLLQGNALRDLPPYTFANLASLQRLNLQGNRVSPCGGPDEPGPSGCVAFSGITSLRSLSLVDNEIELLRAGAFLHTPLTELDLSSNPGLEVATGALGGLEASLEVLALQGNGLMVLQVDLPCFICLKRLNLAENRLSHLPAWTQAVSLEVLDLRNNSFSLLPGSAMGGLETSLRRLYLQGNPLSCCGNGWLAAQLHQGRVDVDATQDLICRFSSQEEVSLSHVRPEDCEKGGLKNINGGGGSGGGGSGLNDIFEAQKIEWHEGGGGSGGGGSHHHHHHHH
# Human GARP-TGFβ1 complex, sequence (P01137 30-390 limits assumed, chain 2 of 2, further chain): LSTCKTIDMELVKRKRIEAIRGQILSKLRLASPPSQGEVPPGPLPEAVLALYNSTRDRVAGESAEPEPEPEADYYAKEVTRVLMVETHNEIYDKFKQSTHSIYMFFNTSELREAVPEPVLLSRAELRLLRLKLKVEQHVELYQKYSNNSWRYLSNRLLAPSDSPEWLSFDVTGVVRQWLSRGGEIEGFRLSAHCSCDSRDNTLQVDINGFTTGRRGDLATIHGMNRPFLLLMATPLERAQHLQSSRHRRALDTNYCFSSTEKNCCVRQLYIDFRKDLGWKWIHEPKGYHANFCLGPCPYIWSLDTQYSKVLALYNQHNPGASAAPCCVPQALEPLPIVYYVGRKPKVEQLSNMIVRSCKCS
# T1 construct: Soluble recombinant complex, co-expressed in ExpiCHO cells and purified; also called human GARP/TGFβ1 protein
# Mouse GARP-TGFβ1 complex = molecular target: T2, Mouse GARP-TGFβ1 complex (mouse, UniProt G3XA59 18-628; P04202 30-390); assay: as above
# Mouse GARP-TGFβ1 complex, sequence (G3XA59 other isoform, or with tags, fused parts or gaps limits assumed, chain 1 of 2): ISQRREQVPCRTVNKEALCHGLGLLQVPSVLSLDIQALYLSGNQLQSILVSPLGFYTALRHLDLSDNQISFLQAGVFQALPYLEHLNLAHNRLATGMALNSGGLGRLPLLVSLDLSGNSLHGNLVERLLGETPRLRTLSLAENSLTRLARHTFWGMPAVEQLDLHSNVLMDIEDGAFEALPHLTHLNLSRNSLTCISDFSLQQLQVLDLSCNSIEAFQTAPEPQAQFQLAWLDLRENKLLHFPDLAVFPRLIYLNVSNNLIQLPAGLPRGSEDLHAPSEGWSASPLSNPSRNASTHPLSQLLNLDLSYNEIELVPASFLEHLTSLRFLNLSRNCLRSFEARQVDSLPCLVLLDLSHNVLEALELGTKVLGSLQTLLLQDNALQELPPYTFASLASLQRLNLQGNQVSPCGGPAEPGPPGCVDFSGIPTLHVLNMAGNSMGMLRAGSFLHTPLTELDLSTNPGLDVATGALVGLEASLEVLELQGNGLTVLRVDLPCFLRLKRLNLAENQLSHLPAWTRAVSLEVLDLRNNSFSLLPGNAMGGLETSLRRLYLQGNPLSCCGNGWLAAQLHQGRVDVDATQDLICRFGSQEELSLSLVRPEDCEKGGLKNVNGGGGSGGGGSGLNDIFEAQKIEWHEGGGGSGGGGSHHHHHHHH
# Mouse GARP-TGFβ1 complex, sequence (P04202 30-390 limits assumed, chain 2 of 2, further chain): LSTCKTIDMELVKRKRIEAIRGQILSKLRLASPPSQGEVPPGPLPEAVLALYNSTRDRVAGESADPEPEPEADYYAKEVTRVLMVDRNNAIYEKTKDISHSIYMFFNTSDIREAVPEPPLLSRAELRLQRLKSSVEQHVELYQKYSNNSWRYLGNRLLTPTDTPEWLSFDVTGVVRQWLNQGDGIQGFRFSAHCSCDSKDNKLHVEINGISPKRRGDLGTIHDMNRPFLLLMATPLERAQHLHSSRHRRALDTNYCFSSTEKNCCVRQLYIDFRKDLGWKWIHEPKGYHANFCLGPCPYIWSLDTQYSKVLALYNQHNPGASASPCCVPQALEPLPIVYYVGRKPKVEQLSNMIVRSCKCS
# T2 construct: Soluble recombinant complex, co-expressed in ExpiCHO cells and purified; also called Murine GARP-TGFβ1 complex
Binder,Kd (Human GARP-TGFβ1 complex),koff (Human GARP-TGFβ1 complex),kon (Human GARP-TGFβ1 complex),Kd (Mouse GARP-TGFβ1 complex),koff (Mouse GARP-TGFβ1 complex),kon (Mouse GARP-TGFβ1 complex)
B1,2.46 nM,0.000101 s⁻¹,41200 M⁻¹ s⁻¹,24.6 nM,0.00061 s⁻¹,24800 M⁻¹ s⁻¹
B2,2.12 nM,0.000157 s⁻¹,73800 M⁻¹ s⁻¹,10.1 nM,0.000507 s⁻¹,50000 M⁻¹ s⁻¹
B3,4.69 nM,0.000145 s⁻¹,30800 M⁻¹ s⁻¹,44.6 nM,0.000625 s⁻¹,14000 M⁻¹ s⁻¹
